PubChem BioAssay AID651820 (National Center for Advancing Translational Sciences (NCATS), 2012)
“And” between values parts separate entries of the source, which are not always exact repeats. Equal values may be shown once. In all, about 340,000 compounds went through this assay and about 12,000 (3.5%) were called active. This list was built around the results that the source calls inconclusive (neither active nor inactive); the mix of calls is not that of the screen. Calls come from the whole dose curve; as a rule, active = well fitted inhibition curve with a large enough effect; inconclusive = small, poorly fitted or top-dose-only effect, or another doubt; inactive = no such curve, though single readings can be large or run the other way. Potencies of inconclusive entries are doubtful fits and often do not repeat.

Test: qHTS Assay for Inhibitors of Hepatitis C Virus (HCV)
Settings: Huh7.5.1 HCVcc-Cre (HCVcc is cell-culture hepatitis C virus) infection, luciferase reporter, 44 h; activity change, negative = inhibition: at 41.8 µM (top of the series)
Summary of the method: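 Infectious HCV cell culture screen: compound-treated cells (1,000/well, pre-plated 4 h) are infected with HCVcc-Cre at roughly 0.5 moi and grown 44 h. Infection is quantified by luciferase signal after 15 min substrate incubation at room temperature.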
% is set by controls: 0 for no effect and ±100 for the full control effect; potency is the fitted concentration of half-maximal effect; tags give direction and shape of the fitted curve.

Compound | Potency | activity change, negative = inhibition
CC1CCCCC1NC(=O)CNC(=S)N1CC2CC(C1)c1cccc(=O)n1C2 (configuration not stated) | inconclusive: 3.55 µM [inhibitor, single point] | 
CCOC(=O)C1=C(C)Nc2ccccc2N=C1NC(=O)c1oc2ccccc2c1COC | inconclusive: 3.98 µM [inhibitor, full curve] | 
COC(=O)c1sc(N)c(C(=O)OC)c1CSc1nnc(-c2ccccc2Cl)n1C | inconclusive: 4.47 µM [inhibitor, full curve] | 
O=C(Cc1ccccc1)c1c[nH]c(C(=O)NCCCN2CCOCC2)c1 |  | inactive: 5.66%
CCOC(=O)c1[nH]c(C)c(C(=O)OCC(=O)NC(=O)NC(C)(C)C)c1C | inconclusive: 7.08 µM [inhibitor, partial curve] | 
Fc1ccc(C2c3cccn3CCN2C(=S)Nc2cccc(F)c2)cc1 (configuration not stated) | inconclusive: 14.1 µM [inhibitor, single point] | 
CCOc1ccc(-c2nnn(CC(=O)N3CCCC3)n2)cc1OCC | inconclusive: 14.1 µM [inhibitor, partial curve] | 
Cc1cc(C)cc(NC(=O)C2CCCN(S(=O)(=O)c3cnc[nH]3)C2)c1 (configuration not stated) |  | inactive: 4.15%
O=C(CN1C(=O)NC2(CCCCCC2)C1=O)Nc1ccc2c(c1)CCC2 |  | inactive: -10.9%
COC(=O)/C(C#N)=C/c1c(N2CCN(c3ccccc3)CC2)nc2c(C)cccn2c1=O | inconclusive: 11.2 µM [inhibitor, partial curve] | 
O=C(O)CCC(=O)NN1C(=O)c2ccccc2NC1c1ccc(F)cc1 (configuration not stated) | inconclusive: 5.62 µM [inhibitor, single point] | 
CCN(CC)S(=O)(=O)c1ccc(NCC2COc3ccccc3O2)c([N+](=O)[O-])c1 (configuration not stated) | inconclusive: 31.6 µM [inhibitor, single point] | 
CCCCCCC(=O)Nc1ccc(S(=O)(=O)Nc2onc(C)c2C)cc1 |  | inactive: 16.6%
OCCC1CN(CCCc2ccccc2)CCN1Cc1ccccc1 (configuration not stated) |  | inactive: -24.4%
FC(F)(F)c1ccc(-c2cccc3c2C2CC3CCN2)cc1 (configuration not stated) | inconclusive: 3.16 µM [inhibitor, single point] | 
O=C(NCC1CCCO1)C(c1cccs1)N(Cc1cccs1)C(=O)c1ccc(-c2ccccc2)[nH]1 (configuration not stated) | inconclusive: 31.6 µM [inhibitor, single point] | 
CCCCCC(=O)N[C@@H](c1ccccc1)[C@@H](O)C(=O)O[C@H]1C[C@@]2(O)[C@@H](OC(=O)c3ccccc3)C3[C@](C)(C(=O)[C@H](OC(C)=O)C(=C1C)C2(C)C)[C@@H](O)C[C@H]1OC[C@@]31OC(C)=O (some centres not stated) | inconclusive: 35.5 µM [inhibitor, partial curve, poor fit] | 
CCc1c(C(=O)NCCc2ccc(OC)c(OC)c2)[nH]c(C)c1C(C)=O | inconclusive: 5.62 µM [inhibitor, partial curve] | 
CCOc1[nH]n(-c2ccccc2)c(=O)c1C=Nc1ccc(Cl)cc1 | inconclusive: 2.51 µM [inhibitor, full curve] | 
Cc1ccccc1NC(=O)c1ccc2nc(N3CCOCC3)sc2c1 | inconclusive: 25.1 µM [inhibitor, single point] | 
COc1ccc(-c2sc(Nc3ccccc3)n[n+]2-c2ccc(F)cc2)c(C)c1C |  | inactive: -18%
CC(=O)Oc1c(C)c(C)c2c(c1C)CC[C@@](C)(CCC[C@H](C)CCC[C@H](C)CCCC(C)C)O2 |  | inactive: -88%
O=C(Nc1cccc(-c2cccc(F)c2)c1)C1CCN(Cc2ccco2)CC1 | inconclusive: 5.01 µM [inhibitor, full curve, poor fit] | 

Compound | Potency | activity change, negative = inhibition
CCn1ncc(Br)c1C(=O)Nc1ccc(-c2ccno2)cc1 |  | inactive: 6.41%
CCOc1ccccc1NC(=O)CSc1nnc(Cc2cccn2C)n1-c1ccc(F)cc1 | inconclusive: 12.6 µM [inhibitor, single point] | 
CCCc1nn(C)c(C(=O)Nc2cccc3ccccc23)c1Cl |  | inactive: -29.1%
CCOC(=O)c1c(NC(=O)C2c3ccccc3Oc3ccccc32)sc(C(C)=O)c1C | active: 0.794 µM | 
COCC1CCN(C(=O)C2CCN(c3nc(-c4ccccc4)nc4c3CCC4)CC2)C1 (configuration not stated) | inconclusive: 31.6 µM [inhibitor, single point] | 
CC(=O)N1CCCc2cc(S(=O)(=O)NCCC3=CCCCC3)ccc21 | inconclusive: 10 µM [inhibitor, partial curve] | 
CCC(C)(C)C1CCC2(CC1)NC(=O)N(CC(=O)NCCc1ccc(OC)c(OC)c1)C2=O (configuration not stated) | inconclusive: 31.6 µM [inhibitor, single point] | 
COc1cc(CNc2ccc3[nH]c(=O)[nH]c3c2)ccc1OCc1c(F)cccc1Cl | inconclusive: 31.6 µM [inhibitor, single point] | 
CN1CCc2c(sc3c2c(NCc2ccco2)nc2nnnn23)C1 | active: 10 µM | 
COc1ccc(CNC(=O)C2=CC(c3ccc(OC)cc3)=NS(=O)(=O)N2C)cc1 |  | inactive: -11.2%
CCN1CCN(C(=O)c2ccccc2N(Cc2ccccc2)S(=O)(=O)c2ccc(C)cc2)CC1 | inconclusive: 31.6 µM [inhibitor, single point] | 
O=C(OCCC12CC3CC(CC(C3)C1)C2)c1ccc(NCc2cc(O)ccc2O)cc1 | active: 2.24 µM | 
Cc1[nH]c2ccccc2c1NC(=O)CN1CCN(C(=O)c2ccco2)CC1 |  | inactive: 12.7%
CCCCn1nc(C(=O)N2CCc3ccccc32)c2ccccc2c1=O | inconclusive: 31.6 µM [inhibitor, single point] | 
CN(C)c1nc2ccccc2c(N)c1-c1ccccc1 | inconclusive: 14.1 µM [inhibitor, single point] | 
O=C(Nc1oc2ccccc2c(=O)c1-c1ccc(Cl)cc1)c1ccco1 |  | inactive: -9.95%
CC1CN(C2CCCCC2)C(=O)NC1=O (configuration not stated) |  | inactive: 10.4%
COc1ccc(NC(=O)c2ccc(S(=O)(=O)N3CC(C)OC(C)C3)cc2)cc1 (configuration not stated) | inconclusive: 31.6 µM [inhibitor, single point] | 
Cc1ccccc1CSc1nnc(-c2ccco2)n1Cc1ccco1 |  | inactive: -20.4%
Cc1noc(C)c1C(=O)Nc1ccccc1C(=O)NCCc1ccccc1 | inconclusive: 12.6 µM [inhibitor, partial curve] | 
CCCc1ccc(OCC(O)CN2CCN(CCO)CC2)cc1 (configuration not stated) | inconclusive: 20 µM [inhibitor, single point] | 
O=C(N/N=C/c1ccoc1)c1ccccc1 |  | inactive: -0.237%
CC(C)n1cc(NC(=O)c2cc(-c3ccccc3)on2)cn1 | inconclusive: 8.91 µM [inhibitor, partial curve] | 

Compound | Potency | activity change, negative = inhibition
CC(=O)c1c(C)[nH]c(C(=O)COC(=O)C2(C)CC2(Cl)Cl)c1C (configuration not stated) | inconclusive: 8.91 µM [inhibitor, single point] | 
CN(Cc1cccc(F)c1)C(=O)CSc1nnnn1C1CC1 |  | inactive: 1.07%
COC(=O)C1=C(c2ccc(-c3ccccc3)c(F)c2)C[C@@H]2CC[C@H]1N2C(=O)NCCO | inconclusive: 31.6 µM [inhibitor, single point] | 
CCOc1ccc(C(=O)Nc2cccc3cccnc23)cc1 |  | inactive: 10.1%
O=C(Cc1cccc(C(F)(F)F)c1)Nc1cccc(S(=O)(=O)N2CCCC2)c1 | inconclusive: 31.6 µM [inhibitor, single point] | 
CCCCOc1ccc(C(=O)OCC(=O)NC2CCCC2)cc1 |  | inactive: 9.68%
COc1ccc(-n2nc(C(=O)NCC(=O)NC(C)C)c3ccccc3c2=O)cc1Cl |  | inactive: -11%
O=C(NCCn1cc(SCC(=O)N2CCOCC2)c2ccccc21)c1ccccc1 |  | inactive: -18.2%
CC(=O)N1c2ccc(S(=O)(=O)N3CCCCC3)cc2CC1C(=O)NCc1cccc(Cl)c1 (configuration not stated) | inconclusive: 25.1 µM [inhibitor, single point] | 
CCCn1nc(C(=O)NNC(=O)c2ccc(OC(F)F)cc2)c2ccccc2c1=O | inconclusive: 5.01 µM [inhibitor, full curve, poor fit] | 
Cc1ccc(S(=O)(=O)N(C)CCCC(=O)N2CCN(c3ccccn3)CC2)cc1 | inconclusive: 31.6 µM [inhibitor, single point] | 
COc1ccc(Nc2nccc(-c3ccc([N+](=O)[O-])cc3)n2)cc1 | inconclusive: 12.6 µM [inhibitor, single point] | 
COc1ccc(NCc2nc3ccccc3n2CCOc2ccc(C)cc2)cc1 | active: 8.91 µM | 
COc1ccc(C(=O)/C=C/C(=O)N(Cc2ccc3c(c2)OCO3)C(C(=O)NC2CCCCC2)c2ccncc2)c(O)c1 (configuration not stated) | inconclusive: 31.6 µM [inhibitor, single point] | 
CCN(CC)c1ccc(S(=O)(=O)N2CCOCC2)cc1NC(=O)COC(=O)/C=C/c1ccc(C)o1 | inconclusive: 22.4 µM [inhibitor, single point] | 
CN(C)[C@@H]1C(=O)C(C(N)=O)=C(O)[C@@]2(O)C(=O)C3=C(O)c4c(O)ccc(Cl)c4[C@@](C)(O)[C@H]3C[C@@H]12 | active: 0.891 µM | 
O=C(c1cccc(Cl)c1)N1CCC2CC1c1cc(-c3ccc(F)cc3)ccc12 (configuration not stated) | inconclusive: 5.01 µM [inhibitor, single point] | 
COc1ccc(C)cc1NS(=O)(=O)c1ccc(NS(=O)(=O)c2ccc(NC(C)=O)cc2)cc1 | inconclusive: 3.16 µM [inhibitor, partial curve] and inconclusive: 10 µM [inhibitor, partial curve, poor fit] | 
CCc1ccc(OCCOC(=O)Nc2ccccc2)cc1 | inconclusive: 22.4 µM [inhibitor, single point] | 
COc1ccc(OC)c(S(=O)(=O)N2CCN(c3ccc(F)cc3)CC2)c1 |  | inactive: -6.13%
COC(=O)c1c(NC(=O)CN2CCCC(C)C2)c2c(C)cccc2n1C (configuration not stated) |  | inactive: -18.4%
